# Reference: PubChem BioAssay AID2451 (National Center for Advancing Translational Sciences (NCATS), 2010)
# The campaign covered roughly 290,000 compounds. About 2,100 (0.72%) were called active. The shares of active, inactive and inconclusive entries below differ from those in the screen. The call rests on the fitted dose curve; in most records, active means well fitted inhibition curve with a large enough effect; inconclusive means small, poorly fitted or top-dose-only effect, or effect the other way; inactive means flat fitted curve, though single readings scatter. A potency beside an inconclusive call is a rough fit, not a confirmed value.
# Biological target: Fructose-bisphosphate aldolase (Giardia intestinalis (strain ATCC 50803 / WB clone C6)) (UniProt A8B2U2)
# Chain of UniProt A8B2U2 (A8B2U2 whole entry, looked up): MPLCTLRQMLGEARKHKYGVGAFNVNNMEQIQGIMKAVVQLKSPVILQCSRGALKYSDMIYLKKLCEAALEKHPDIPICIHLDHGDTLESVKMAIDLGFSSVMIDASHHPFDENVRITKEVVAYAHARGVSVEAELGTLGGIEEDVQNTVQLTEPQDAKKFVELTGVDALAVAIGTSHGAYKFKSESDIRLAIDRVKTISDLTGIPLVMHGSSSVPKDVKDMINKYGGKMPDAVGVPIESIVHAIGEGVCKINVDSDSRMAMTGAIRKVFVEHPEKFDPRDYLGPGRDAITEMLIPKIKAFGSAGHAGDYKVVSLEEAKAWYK
# Test: qHTS Assay for Inhibitors of Fructose-1,6-bisphosphate Aldolase from Giardia Lamblia; further: nearly all actives have a fitted effect of over 55% in size
# Conditions: purified Giardia FBPA; activity, negative = inhibition: at 59.6 µM (top of the series) unless noted
# Summary of the method: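 Giardia FBPA (40 nM reagent) was preincubated 10 min at RT with compound (up to 57.5 uM final), then substrate plus GAPDH/TPI/NAD/arsenate coupling system with diaphorase/resazurin was added; resorufin fluorescence (525/598 nm) was read after 20 min.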
# On the % scale 0 is the no-effect control and ±100 the full control effect; potency means the concentration at half of the fitted maximal effect; tags describe the fitted curve by direction and shape.
Compound,Potency,"activity, negative = inhibition"
CC(C)n1cc(/C=C/c2cc[n+](C)cc2)c2ccccc21,"inconclusive: 25.1 µM [inhibitor, single point]",
COCCNC(=S)NN=C1CCCCCC1,active: 19.9 µM,
COc1ccc(NC(=O)CN(C)CCOc2ccc(Cl)cc2)cc1OC,"inconclusive: 15.8 µM [inhibitor, partial curve]",
CCN(CC)c1ccc(/C=N/Nc2nn[nH]n2)cc1,"inconclusive: 19.9 µM [inhibitor, partial curve]",
CCn1ncc(C2=NOC(C(=O)NCc3ccc(OC)cc3)C2)c1C (stereo not given),,inactive: 1.87% [at 12.9 µM]
CC1=CC(=O)c2c(O)ccc(O)c2C1=O,"inconclusive: 8.89 µM [inhibitor, partial curve]",
COc1ccc(OC)c(C(C)NC(=O)C23CC4CC(CC(C4)C2)C3)c1 (stereo not given),inactive,
COc1ccc(-n2nc(C(=O)NCC(=O)N3CCN(Cc4ccccc4)CC3)c3ccccc3c2=O)cc1OC,inactive,
COC(=O)c1c(C)[nH]c(O)c1C=Nc1ccc(C#N)cc1,active: 15.8 µM,
COc1cc(NC(=O)Cn2ccsc2=N)c(C)cc1[N+](=O)[O-],inactive,
Cc1cc(SCC(=O)c2cccs2)n2nc(C)c(-c3ccccc3)c2n1,"inconclusive: 19.9 µM [activator, single point]",
O=C(Nc1ccc2c(c1)CCC2)C1COc2ccccc2O1 (stereo not given),inactive,
COc1ccccc1CCNC(=O)CSc1ccc(-c2ccco2)nn1,"inconclusive: 25.1 µM [inhibitor, partial curve]",
CCOC(=O)c1ccccc1NCN1C(=O)CSC1=O,"inconclusive: 20 µM [inhibitor, single point]",
COc1ccc(/C=C/C(=O)OCn2c(SC)nnc(C)c2=O)cc1OC,inactive,
O=C(CNCCc1ccccc1)Nc1ccc(C(=O)N2CCCCC2)cc1,"inconclusive: 12.6 µM [inhibitor, single point]",
Oc1ccc(N=Cc2c(O)ccc3ccccc23)cc1,"inconclusive: 5.61 µM [inhibitor, partial curve]",
COCCN=c1scc(-c2cccs2)n1/N=C/c1ccc(O)c(O)c1O,"inconclusive: 5.61 µM [inhibitor, partial curve]",
CN1CCN(c2ncc3nc(-c4ccc(Cl)cc4)c(=O)n(CCC#N)c3n2)CC1,inactive,
N#Cc1cccnc1Oc1ccccc1,inactive,
O=C(N=Nc1ccc(NOC(=O)c2ccccc2Br)cc1)c1ccccc1O,"inconclusive: 15.8 µM [inhibitor, partial curve]",
NC(=O)c1sc2nnc(-c3ccccc3)c(-c3ccccc3)c2c1N,inactive,
NC(=O)c1c(N)sc2c1CCC2,"inconclusive: 19.9 µM [inhibitor, single point]",
CCC(C)NC(=S)N1CCN(C)CC1 (stereo not given),"inconclusive: 19.9 µM [inhibitor, partial curve]",
COc1ccc(C2C(C#N)=C3NC(=O)c4c(sc5c4CCCCC5)N3C3=C2C(=O)CC(C)(C)C3)cc1 (stereo not given),"inconclusive: 17.7 µM [inhibitor, partial curve]",

Compound,Potency,"activity, negative = inhibition"
COc1ccccc1CN1CCN(C(=O)c2ccncc2)CC1,"inconclusive: 15.8 µM [inhibitor, single point]",
S=C(NCCCN1CCOCC1)NCCCN1CCOCC1,"inconclusive: 25.1 µM [inhibitor, single point]",
CNc1c(N)c(=O)oc2ccccc12,"inconclusive: 14.1 µM [inhibitor, partial curve]",
CCCCC(=O)N/N=C(\C)CC(=O)Nc1ccccc1Br,inactive,
CCOC(=O)N1CCN(C(=S)NC(=O)c2cc(Br)ccc2Cl)CC1,"inconclusive: 15.8 µM [inhibitor, single point]",
COc1cccc2sc(Nc3nnc(-c4ccccc4Cl)o3)nc12,"inconclusive: 25.1 µM [inhibitor, single point]",
CN(C)CCN1CCc2ccccc21,"inconclusive: 25.1 µM [inhibitor, partial curve]",
Cc1ccc(C2NNC(=O)C2NC(=O)c2ccccc2)cc1 (stereo not given),"inconclusive: 17.7 µM [inhibitor, single point]",
Cc1ccc2[nH]c3c(c2c1)CCCC3NCCO (stereo not given),"inconclusive: 35.5 µM [inhibitor, single point]",
COCCNC(=O)c1c(N)n(CCC2=CCCCC2)c2nc3ccccc3nc12,"inconclusive: 15.8 µM [inhibitor, single point]",
COc1ccc(N2CCN(c3oc(COc4ccc(Cl)cc4)nc3C#N)CC2)cc1,inactive,
Nc1c(Cl)cc2c(c1Oc1ccccc1)C(=O)c1ccccc1C2=O,inactive,
COc1cc2c(cc1OC)CN(Cc1nc3ccsc3c(=O)[nH]1)CC2,"inconclusive: 9.98 µM [inhibitor, partial curve]",
C=CCNC(=S)/C(=C(/[O-])c1ccc([N+](=O)[O-])cc1)[n+]1ccccc1,"inconclusive: 19.9 µM [inhibitor, partial curve]",
CSc1ccc(CN(C)CCc2ccccn2)cc1,active: 14.1 µM,
O=C(NC(=S)Nc1nc2ccccc2s1)c1ccco1,active: 5 µM,
CCOc1cc(N2CCOCC2)c(OCC)cc1NC(=O)c1ccc2ccccc2n1,"inconclusive: 17.7 µM [inhibitor, single point]",
CC1CCN(C(=O)CSc2nncn2C)CC1,inactive,
CC/C(=N\NS(C)(=O)=O)c1ccccc1,inactive,
CCC(O)C1CCN(C(=O)c2cc(COc3ccc4ncccc4c3)on2)CC1 (stereo not given),inactive,
O=C(CSc1n[nH]c(-c2cccnc2)n1)Nc1ccc([N+](=O)[O-])cc1,"inconclusive: 25.1 µM [inhibitor, single point]",
CC(=O)N(C1=C(Cl)C(=O)c2ccccc2C1=O)C1CCCCC1,active: 1.58 µM,
CC(=O)c1c(C)nc(-c2ccccc2)nc1N,"inconclusive: 15.8 µM [inhibitor, single point]",
CC(NC(=O)c1cccs1)C(S)c1ccccc1 (stereo not given),"inconclusive: 1.26 µM [inhibitor, partial curve]",
CN[C@H]1CCc2cc(OC)c(OC)c(OC)c2-c2ccc(N[C@@H]3CCCCNC3=O)c(=O)cc21,"inconclusive: 14.1 µM [inhibitor, partial curve]",
